As usually defined, the Kd is a measure of binding affinity in units of concentration. Broadly, the koff is a measure of how fast the partners let go of each other. A higher koff goes with a short-lived complex. What is called kon is a measure of how fast the partners come together. As a reminder, the EC50 is the concentration that produces a half-maximal response. High values mean lower potency in that assay, low ones higher potency in that assay.

For assay [1], the target named is T1, Human ALK-1/ACVRL1 Protein, His Tag (Acro AL1-H5227) (human, UniProt P37023 partial chain).
T1 construct: range 22-118; Bought protein; also called ALK-1/His; ALK-1-his
The assay is described as follows: BLI (Octet RED96e), antibody on AHC sensor, 1:1 model. Background: BLI is a label-free optical method that tracks binding on a fibre tip over time.

Assay [2] deals with T2, human ALK-1 on cells (CHO-K1-hALK-1 cells; HUVEC; A172) (human, UniProt P37023 22-503).
T2 construct: whole, on cells; One entry is used for ALK-1 on the transfected CHO-K1 line and on HUVEC/A172 cells; also called CHO-K1-ALK-1 cells; CHO-K1-ALK1 cells
Nature of the assay: flow cytometry on CHO-K1-hALK-1 cells, MFI; VEGF 165-biotin and APC-anti-human IgG mAb added after the antibody. (In general: Flow cytometry measures light scatter and fluorescence of single cells or particles in a stream.)

Assay [3] has as its target T1, Human ALK-1/ACVRL1 Protein, His Tag …. The assay is described as follows: BLI (Octet RED96e), antibody on ProteinA sensor, 1:1 model.
For assay [4], the target named is T3, VEGF165 (UniProt P15692-4 27-191).
T3 construct: Bought; also called VEGF165 protein; VEGF-A antigen
T3 sequence (looked up): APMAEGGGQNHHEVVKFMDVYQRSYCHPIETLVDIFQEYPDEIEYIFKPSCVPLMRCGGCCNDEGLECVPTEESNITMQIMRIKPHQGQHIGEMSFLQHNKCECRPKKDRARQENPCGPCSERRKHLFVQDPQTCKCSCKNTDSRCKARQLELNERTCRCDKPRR
The assay is described as follows: BLI (Octet RED96e), antibody on AHC sensor, 1:1 model.

Assay [5] concerns the target T2, human ALK-1 on cells (CHO-K1-hALK-1 …). The assay is described as follows: cell-based or functional assay.

B1: BEV813 bsAb (anti-ALK-1-anti-VEGF bispecific antibody) (bispecific antibody, human IgG1, kappa)
heavy: EVQLVESGGGLVQPGGSLRLSCAASGYTFTNYGMNWVRQAPGKGLEWVGWINTYTGEPTYAADFKRRFTFSLDTSKSTAYLQMNSLRAEDTAVYYCAKYPHYYGSSHWYFDVWGQGTLVTVSSASTKGPSVFPLAPSSKSTSGGTAALGCLVKDYFPEPVTVSWNSGALTSGVHTFPAVLQSSGLYSLSSVVTVPSSSLGTQTYICNVNHKPSNTKVDKKV[here human IgG1 Fc with changes without letters]GGGGSGGGGSGGGGSGGGGSQVQLQESGPGLVKPSQTLSLTCTVSGGSISSGEYYWNWIRQHPGKCLEWIGYIYYSGSTYYNPSLKSRVTISVDTSKNQFSLKLSSVTAADTAVYYCARESVAGFDYWGQGTLVTVSSGGGGSGGGGSGGGGSGGGGSEIVLTQSPGTLSLSPGERATLSCRASQSVSSSYLAWYQQKPGQAPRLLIYGTSSRATGIPDRFSGSGSGTDFTLTISRLEPEDFAVYYCQAYGSWPITFGCGTRLEIK
light: DIQMTQSPSSLSASVGDRVTITCSASQDISNYLNWYQQKPGKAPKVLIYFTSSLHSGVPSRFSGSGSGTDFTLTISSLQPEDFATYYCQQYSTVPWTFGQGTKVEIKRTVAAPSVFIFPPSDEQLKSGTASVVCLLNNFYPREAKVQWKVDNALQSGNSQESVTEQDSKDSTYSLSSTLTLSKADYEKHKVYACEVTHQGLSSPVTKSFNRGEC
notes: also called ALK1-VEGF bispecific antibody BEV813
With B1, in assay [1], binding was put at a Kd of 0.689 nM, the koff stood at 0.000335 s⁻¹ and the kon was determined as 486000 M⁻¹ s⁻¹. In assay [2], the EC50 came out at 1.16 nM. In assay [3], this molecule gave a Kd of 4.89 nM, a koff of 0.00219 s⁻¹ and a kon of 447000 M⁻¹ s⁻¹. Besides, in assay [4], the Kd was 0.724 nM, the koff turned out to be 0.000151 s⁻¹ and the kon was 209000 M⁻¹ s⁻¹. For the same molecule, in assay [5], the “IC50; blocking of BMP9-induced Smad1 phosphorylation, pSmad1 ELISA assay in A172 cell line (right panel), OD 450” value is 6.44 nM and the “IC50; blocking of BMP9-induced Smad1 phosphorylation, pSmad1 ELISA assay in HUVEC (left panel), OD 450” value was determined as 93.1 nM.

The values above are taken from patent US20250382386A1 (KINTOR PHARMACEUTICAL GUANGDONG, published 2025).
